Source: article PMC9911399, “Two distinct binding modes provide the RNA-binding protein RbFox with extraordinary sequence specificity”
Residue numbers refer to the chain shown, from its start. The list shows a part of the results.

T1: RBFOX1 RRM RbFoxmut (Fox-RRM*) (Homo sapiens, UniProt Q9NWB1 109-208, R118D;E147R;N151S;E152T)
T1 sequence: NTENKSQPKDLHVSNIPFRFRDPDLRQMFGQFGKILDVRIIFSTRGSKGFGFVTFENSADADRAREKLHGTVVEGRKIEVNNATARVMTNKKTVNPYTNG

B1: GCCUUCG (DNA:RNA)
RNA: GGGAGACCGGAAUUCAGAUUGUCCGCCUUCGUUAAAUCCCGUCGUAGCCACCA
DNA 1: CAATCTGAATTCCGGTCTCCC
DNA 2: TGGTGGCTACGACGGGATT
B2: CUCCGAC (DNA:RNA)
RNA: B1 RNA with G25C, C26U, U28C, U29G, C30A, G31C
DNA 1: CAATCTGAATTCCGGTCTCCC
DNA 2: TGGTGGCTACGACGGGATT
B3: UUAUUAG (DNA:RNA)
RNA: B1 RNA with G25U, C26U, C27A, C30A
DNA 1: CAATCTGAATTCCGGTCTCCC
DNA 2: TGGTGGCTACGACGGGATT
B4: CUCUCGU (DNA:RNA)
RNA: B1 RNA with G25C, C26U, U29C, C30G, G31U
DNA 1: CAATCTGAATTCCGGTCTCCC
DNA 2: TGGTGGCTACGACGGGATT
B5: AUCGGGA (DNA:RNA)
RNA: B1 RNA with G25A, C26U, U28G, U29G, C30G, G31A
DNA 1: CAATCTGAATTCCGGTCTCCC
DNA 2: TGGTGGCTACGACGGGATT
B6: ACCUUAG (DNA:RNA)
RNA: B1 RNA with G25A, C30A
DNA 1: CAATCTGAATTCCGGTCTCCC
DNA 2: TGGTGGCTACGACGGGATT
B7: CUCACUU (DNA:RNA)
RNA: B1 RNA with G25C, C26U, U28A, U29C, C30U, G31U
DNA 1: CAATCTGAATTCCGGTCTCCC
DNA 2: TGGTGGCTACGACGGGATT
B8: UAGCUAG (DNA:RNA)
RNA: B1 RNA with G25U, C26A, C27G, U28C, C30A
DNA 1: CAATCTGAATTCCGGTCTCCC
DNA 2: TGGTGGCTACGACGGGATT
B9: CGGGUGG (DNA:RNA)
RNA: B1 RNA with G25C, C26G, C27G, U28G, C30G
DNA 1: CAATCTGAATTCCGGTCTCCC
DNA 2: TGGTGGCTACGACGGGATT
B10: UUAGAGG (DNA:RNA)
RNA: B1 RNA with G25U, C26U, C27A, U28G, U29A, C30G
DNA 1: CAATCTGAATTCCGGTCTCCC
DNA 2: TGGTGGCTACGACGGGATT
B11: UCAUAUG (DNA:RNA)
RNA: B1 RNA with G25U, C27A, U29A, C30U
DNA 1: CAATCTGAATTCCGGTCTCCC
DNA 2: TGGTGGCTACGACGGGATT
B12: UGGCGGG (DNA:RNA)
RNA: B1 RNA with G25U, C26G, C27G, U28C, U29G, C30G
DNA 1: CAATCTGAATTCCGGTCTCCC
DNA 2: TGGTGGCTACGACGGGATT
B13: CGUGCCC (DNA:RNA)
RNA: B1 RNA with G25C, C26G, C27U, U28G, U29C, G31C
DNA 1: CAATCTGAATTCCGGTCTCCC
DNA 2: TGGTGGCTACGACGGGATT
B14: UACCGAA (DNA:RNA)
RNA: B1 RNA with G25U, C26A, U28C, U29G, C30A, G31A
DNA 1: CAATCTGAATTCCGGTCTCCC
DNA 2: TGGTGGCTACGACGGGATT
B15: AGUUUCA (DNA:RNA)
RNA: B1 RNA with G25A, C26G, C27U, G31A
DNA 1: CAATCTGAATTCCGGTCTCCC
DNA 2: TGGTGGCTACGACGGGATT
B16: UCACAAC (DNA:RNA)
RNA: B1 RNA with G25U, C27A, U28C, U29A, C30A, G31C
DNA 1: CAATCTGAATTCCGGTCTCCC
DNA 2: TGGTGGCTACGACGGGATT
B17: AAGGCGC (DNA:RNA)
RNA: GGGAGACCGGAAUUCAGAUUGUCCAAGGCGCUUAAAUCCCGUCGUAGCCACCA
DNA 1: CAATCTGAATTCCGGTCTCCC
DNA 2: TGGTGGCTACGACGGGATT
B18: UGAAGUA (DNA:RNA)
RNA: GGGAGACCGGAAUUCAGAUUGUCCUGAAGUAUUAAAUCCCGUCGUAGCCACCA
DNA 1: CAATCTGAATTCCGGTCTCCC
DNA 2: TGGTGGCTACGACGGGATT
B19: GCAGGGG (DNA:RNA)
RNA: B1 RNA with C27A, U28G, U29G, C30G
DNA 1: CAATCTGAATTCCGGTCTCCC
DNA 2: TGGTGGCTACGACGGGATT
B20: UUGUUGG (DNA:RNA)
RNA: B1 RNA with G25U, C26U, C27G, C30G
DNA 1: CAATCTGAATTCCGGTCTCCC
DNA 2: TGGTGGCTACGACGGGATT

What follows are binders tested against T1, RBFOX1 RRM RbFoxmut (Fox-RRM*) (assay: EMSA; HiTS-Eq, 1 nM pool, 10 min; buffer printed only for the single-RNA assays: 10 mM Tris pH 7.5, 150 mM NaCl, 3.4 mM EDTA, 0.001% NP-40, 30 C). Conditions: tags: His6 N-terminal (pET28a); label: 5' 32P.
In short: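 Purified RbFox RRM, wild type or mutant, was incubated for 10 min in 50 µL with 1 nM of a 5′-radiolabelled RNA pool carrying 7 randomized nucleotides, whose flanks were annealed to DNA oligonucleotides, over a series of increasing protein concentrations. Unbound RNA was resolved on 8% native PAGE, cut out, reverse-transcribed, barcoded by PCR and sequenced on an Illumina HiSeq 2500. Relative association constants were derived from changes in read counts for each RNA species versus the control reaction and normalised to the cognate motif.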

Row | Binder | binding signal
1 | B1 | 0.2 KA relative to UGCAUGU
2 | B2 | 0.0798 KA relative to UGCAUGU
3 | B3 | 0.113 KA relative to UGCAUGU
4 | B4 | 0.131 KA relative to UGCAUGU
5 | B5 | 0.0835 KA relative to UGCAUGU
6 | B6 | 0.124 KA relative to UGCAUGU
7 | B7 | 0.11 KA relative to UGCAUGU
8 | B8 | 0.1 KA relative to UGCAUGU
9 | B9 | 0.0864 KA relative to UGCAUGU
10 | B10 | 0.0903 KA relative to UGCAUGU
11 | B11 | 0.136 KA relative to UGCAUGU
12 | B12 | 0.142 KA relative to UGCAUGU
13 | B13 | 0.0751 KA relative to UGCAUGU
14 | B14 | 0.0931 KA relative to UGCAUGU
15 | B15 | 0.134 KA relative to UGCAUGU
16 | B16 | 0.0452 KA relative to UGCAUGU
17 | B17 | 0.0876 KA relative to UGCAUGU
18 | B18 | 0.105 KA relative to UGCAUGU
19 | B19 | 0.0734 KA relative to UGCAUGU
20 | B20 | 0.117 KA relative to UGCAUGU
